The text below walks through data of PMC1762419.

By UniProt entry, the sequences of proteins in these tests, tags left out.
UniProt P04406: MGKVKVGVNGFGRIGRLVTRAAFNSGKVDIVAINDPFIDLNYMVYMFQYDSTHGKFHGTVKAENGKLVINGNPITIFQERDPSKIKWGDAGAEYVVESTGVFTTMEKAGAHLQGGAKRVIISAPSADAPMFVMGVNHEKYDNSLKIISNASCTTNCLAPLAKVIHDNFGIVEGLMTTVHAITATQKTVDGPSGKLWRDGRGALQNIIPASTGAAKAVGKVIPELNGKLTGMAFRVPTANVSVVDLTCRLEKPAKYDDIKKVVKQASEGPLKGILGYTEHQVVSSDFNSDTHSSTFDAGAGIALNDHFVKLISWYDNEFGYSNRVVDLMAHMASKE

Results are given in words; binding and its absence hold for the method and conditions named. In cells and extracts the contact can be indirect. Some binding calls cover weakened binding; strength is not graded here.

Test [1] addresses GAPDH (endogenous, HeLa) (human (endogenous in HeLa)) (UniProt P04406). Put plainly: co-IP; HeLa (cell line 9-8) whole cell extract, immunoprecipitation with anti-Maf1 or anti-GAPDH antibodies; immunoblot with anti-RPC1, anti-Brf1, anti-Maf1. (Immunoblotting shows a protein as a band on a membrane.)
Test [2] concerns the target T1, endogenous Maf1 (human (endogenous in HeLa)) (UniProt Q9H063).
T1 sequence: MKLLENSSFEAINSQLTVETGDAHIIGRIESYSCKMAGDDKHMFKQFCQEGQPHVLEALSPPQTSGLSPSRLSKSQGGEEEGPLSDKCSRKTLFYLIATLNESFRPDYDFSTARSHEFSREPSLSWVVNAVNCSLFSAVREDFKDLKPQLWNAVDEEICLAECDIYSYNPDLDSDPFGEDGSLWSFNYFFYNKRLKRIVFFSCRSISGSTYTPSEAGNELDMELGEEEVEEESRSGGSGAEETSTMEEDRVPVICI
The test is described as above.

B1: RPC1, the largest subunit of pol III (endogenous, HeLa) (protein, UniProt O14802 1-1390)
chain: MVKEQFRETDVAKKISHICFGMKSPEEMRQQAHIQVVSKNLYSQDNQHAPLLYGVLDHRMGTSEKDRPCETCGKNLADCLGHYGYIDLELPCFHVGYFRAVIGILQMICKTCCHIMLSQEEKKQFLDYLKRPGLTYLQKRGLKKKISDKCRKKNICHHCGAFNGTVKKCGLLKIIHEKYKTNKKVVDPIVSNFLQSFETAIEHNKEVEPLLGRAQENLNPLVVLNLFKRIPAEDVPLLLMNPEAGKPSDLILTRLLVPPLCIRPSVVSDLKSGTNEDDLTMKLTEIIFLNDVIKKHRISGAKTQMIMEDWDFLQLQCALYINSELSGIPLNMAPKKWTRGFVQRLKGKQGRFRGNLSGKRVDFSGRTVISPDPNLRIDEVAVPVHVAKILTFPEKVNKANINFLRKLVQNGPEVHPGANFIQQRHTQMKRFLKYGNREKMAQELKYGDIVERHLIDGDVVLFNRQPSLHKLSIMAHLARVKPHRTFRFNECVCTPYNADFDGDEMNLHLPQTEEAKAEALVLMGTKANLVTPRNGEPLIAAIQDFLTGAYLLTLKDTFFDRAKACQIIASILVGKDEKIKVRLPPPTILKPVTLWTGKQIFSVILRPSDDNPVRANLRTKGKQYCGKGEDLCANDSYVTIQNSELMSGSMDKGTLGSGSKNNIFYILLRDWGQNEAADAMSRLARLAPVYLSNRGFSIGIGDVTPGQGLLKAKYELLNAGYKKCDEYIEALNTGKLQQQPGCTAEETLEALILKELSVIRDHAGSACLRELDKSNSPLTMALCGSKGSFINISQMIACVGQQAISGSRVPDGFENRSLPHFEKHSKLPAAKGFVANSFYSGLTPTEFFFHTMAGREGLVDTAVKTAETGYMQRRLVKSLEDLCSQYDLTVRSSTGDIIQFIYGGDGLDPAAMEGKDEPLEFKRVLDNIKAVFPCPSEPALSKNELILTTESIMKKSEFLCCQDSFLQEIKKFIKGVSEKIKKTRDKYGINDNGTTEPRVLYQLDRITPTQVEKFLETCRDKYMRAQMEPGSAVGALCAQSIGEPGTQMTLKTFHFAGVASMNITLGVPRIKEIINASKAISTPIITAQLDKDDDADYARLVKGRIEKTLLGEISEYIEEVFLPDDCFILVKLSLERIRLLRLEVNAETVRYSICTSKLRVKPGDVAVHGEAVVCVTPRENSKSSMYYVLQFLKEDLPKVVVQGIPEVSRAVIHIDEQSGKEKYKLLVEGDNLRAVMATHGVKGTRTTSNNTYEVEKTLGIEAARTTIINEIQYTMVNHGMSIDRRHVMLLSDLMTYKGEVLGITRFGLAKMKESVLMLASFEKTADHLFDAAYFGQKDSVCGVSECIIMGIPMNIGTGLFKLLHKADRDPNPPKRPLIFDTNEFHIPLVT
For the molecule B1, in test [1], the binding result is on record as “no binding”.

B2: endogenous human Brf1 (protein, UniProt Q92994 1-677)
chain: MTGRVCRGCGGTDIELDAARGDAVCTACGSVLEDNIIVSEVQFVESSGGGSSAVGQFVSLDGAGKTPTLGGGFHVNLGKESRAQTLQNGRRHIHHLGNQLQLNQHCLDTAFNFFKMAVSRHLTRGRKMAHVIAACLYLVCRTEGTPHMLLDLSDLLQVNVYVLGKTFLLLARELCINAPAIDPCLYIPRFAHLLEFGEKNHEVSMTALRLLQRMKRDWMHTGRRPSGLCGAALLVAARMHDFRRTVKEVISVVKVCESTLRKRLTEFEDTPTSQLTIDEFMKIDLEEECDPPSYTAGQRKLRMKQLEQVLSKKLEEVEGEISSYQDAIEIELENSRPKAKGGLASLAKDGSTEDTASSLCGEEDTEDEELEAAASHLNKDLYRELLGGAPGSSEAAGSPEWGGRPPALGSLLDPLPTAASLGISDSIRECISSQSSDPKDASGDGELDLSGIDDLEIDRYILNESEARVKAELWMRENAEYLREQREKEARIAKEKELGIYKEHKPKKSCKRREPIQASTAREAIEKMLEQKKISSKINYSVLRGLSSAGGGSPHREDAQPEHSASARKLSRRRTPASRSGADPVTSVGKRLRPLVSTQPAKKVATGEALLPSSPTLGAEPARPQAVLVESGPVSYHADEEADEEEPDEEDGEPCVSALQMMGSNDYGCDGDEDDGY
For B2, the binding result in test [2] is on record as “binds”.
